Test results reported in PubChem BioAssay AID1645887 (National Center for Advancing Translational Sciences (NCATS), 2021).
“And” between values parts separate entries of the source, which are not always exact repeats. Identical values can stand only once. About 40 (0.2%) of roughly 16,000 compounds were called active. Roughly 1% stayed inconclusive and do not appear here. Calls come from the whole dose curve; as a rule, active = well fitted activation curve with a large enough effect; inconclusive = small, poorly fitted or top-dose-only effect, or another doubt; inactive = no such curve, though single readings can be large or run the other way. The list shows a part of the results.

Target: Rap guanine nucleotide exchange factor 4 (Homo sapiens) (UniProt Q8WZA2)
Test: Validation qHTS for agonist of cAMP-regulated guanine nucleotide exchange factor 4 (EPAC2);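 note: exchange makes BODIPY-GDP fluorescence drop when released from Rap1B; series mostly up to about 150 µM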
Conditions: EPAC2 Rap1B BODIPY-GDP exchange, fluorescence; activation: active compounds read high
Method in brief: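 Signal normalized against 6.5 mM cAMP as agonist control. Mix of EPAC2 (100 nM), RAP1B-BODIPY-GDP (250 nM) and GDP (50 uM) was read kinetically at 480/540 nm, every 5 min over 30 min, after 5 min room-temperature incubation with compound.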
% is set by controls: 0 for no effect and ±100 for the full control effect.

Chain of UniProt Q8WZA2 (Q8WZA2 whole entry, looked up): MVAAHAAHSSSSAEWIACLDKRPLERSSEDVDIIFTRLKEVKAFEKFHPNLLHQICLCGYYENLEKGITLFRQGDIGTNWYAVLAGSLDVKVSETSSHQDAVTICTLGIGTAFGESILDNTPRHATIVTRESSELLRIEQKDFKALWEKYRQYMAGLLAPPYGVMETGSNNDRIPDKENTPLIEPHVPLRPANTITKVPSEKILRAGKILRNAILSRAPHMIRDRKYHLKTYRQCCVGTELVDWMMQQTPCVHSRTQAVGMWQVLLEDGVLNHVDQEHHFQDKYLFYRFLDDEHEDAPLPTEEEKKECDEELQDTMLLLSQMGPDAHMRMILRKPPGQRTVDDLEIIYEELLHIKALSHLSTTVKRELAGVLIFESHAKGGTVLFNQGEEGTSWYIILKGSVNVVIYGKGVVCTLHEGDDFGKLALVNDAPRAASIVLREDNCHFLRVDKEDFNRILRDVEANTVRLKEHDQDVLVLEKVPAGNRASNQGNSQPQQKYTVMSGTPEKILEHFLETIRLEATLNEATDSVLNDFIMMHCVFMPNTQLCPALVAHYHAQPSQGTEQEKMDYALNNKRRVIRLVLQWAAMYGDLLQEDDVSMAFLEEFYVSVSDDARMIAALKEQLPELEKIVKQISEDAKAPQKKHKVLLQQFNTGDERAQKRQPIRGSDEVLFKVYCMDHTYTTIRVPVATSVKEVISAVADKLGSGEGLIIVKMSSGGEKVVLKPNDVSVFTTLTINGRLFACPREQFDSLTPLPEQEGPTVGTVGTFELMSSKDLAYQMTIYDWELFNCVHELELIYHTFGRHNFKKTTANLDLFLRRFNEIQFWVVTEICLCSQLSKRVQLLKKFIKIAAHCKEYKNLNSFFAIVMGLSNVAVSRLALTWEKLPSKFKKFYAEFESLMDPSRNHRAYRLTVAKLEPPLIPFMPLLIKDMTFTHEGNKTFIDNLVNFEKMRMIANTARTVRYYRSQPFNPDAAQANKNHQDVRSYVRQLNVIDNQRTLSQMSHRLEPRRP

activation, inactive:
COc1ccc(C(=O)N2CCC3(CC2)CN(C(=O)NC(C)C)C3)cc1 5.41%
COCCn1c(=O)c(C)nc2cnc(N3CCOCC3)nc21 -1.44%
Cc1onc(-c2c(F)cccc2Cl)c1C(=O)N[C@@H]1C(=O)N2[C@@H]1SC(C)(C)[C@@H]2C(=O)O 10.1% and -1.37%
COc1ccccc1C1OC(=O)CC1C(=O)OC[C@@H]1CCCN2CCCCC12 (stereo partly specified) 16.1%
COc1ncc2nc(CCc3ccccc3)c(=O)n(CCc3ccccc3)c2n1 -18.7%
CCCCOC(=O)C(=O)Nc1cccc(-c2nn[nH]n2)c1 0.687%
O=C(Nc1ccc(Cl)c(C(F)(F)F)c1)[C@@H]1CC=C[C@@H]2CCN(C3CC3)C(=O)[C@@H]21 -10.7%
CC1CC[C@@]2(OC1)OC1CC3C4CC=C5CC(O)CC[C@@]5(C)C4CC[C@]3(C)C1C2C (stereo partly specified) -17.8%
CN(C)CCCSC(=N)N -12.4% and 1.4%
COc1ccc(-c2cc(=O)c3c(O)cc(O[C@@H]4OC(COC5OC(C)C(O)C(O)[C@@H]5O)C(O)C(O)C4O)cc3o2)cc1 (stereo partly specified) -16.9%
Cn1cnnc1Sc1ccc(CN2CCOc3ccc(C4=CCCCC4)cc3C2)o1 -22.7%
COc1ccc(-n2c(=O)c(-c3cccc(C#N)c3)nc3cnc(N4CCNCC4)nc32)cc1 -8.05%
CNc1ncnc2ccc(-c3ccccc3CN(C)C)cc12 -4.25%
COc1ccc(-c2coc3cc(O)ccc3c2=O)c(OC)c1O -15%
NCCNCCNCCN -14.7%
COc1ccccc1CNc1nc(-c2ccccc2CN(C)C)nc2ccccc12 -16.9%
Cc1c(C(=O)O)c(O)cc2c1C(=O)c1c(O)c([C@H]3O[C@H](CO)[C@@H](O)[C@H](O)[C@H]3O)c(O)c(O)c1C2=O -8.9%
Cc1csc(C(C)N(C)C(=O)c2cc(NC(=O)C3CCC3)c3c(c2)nc(-c2ccncc2)n3C)n1 (stereo unspecified) 2.87%
COc1ccc(/C=C/C(=O)NCC2Cc3cccc(-c4nc(C)cnc4C)c3O2)cc1OC (stereo unspecified) -2.67%
Fc1ccc(N2CCN(Cc3ccc4c(c3)CN(Cc3cccn3-c3ncccn3)CCO4)CC2)cc1 1.79%
O=C(NCCN1CCOCC1)c1ccc(Cl)cc1 -11.9% and 10.6% and -3.93%
N#Cc1ccc(CN2CC3(CCN(C(=O)c4cc(C(F)(F)F)cc(C(F)(F)F)c4)CC3)C2)cc1 -16%
O=C(c1ccncc1)N1CCC2(CC1)CN(c1ccc(-c3ccccc3)cc1)C2 8.99%
COCCn1c(=O)c(-c2ccccc2)nc2cnc(N3CCOCC3)nc21 -8.21%
Cc1ccc(/C(=C/CN2CCCC2)c2ccccn2)cc1 -14.7%
CC(C)(C)c1ccc(C(=O)C[n+]2ccc(Cl)c3ccc(Cl)cc32)cc1 -17.3%
C[C@]12CC[C@@H](O)C[C@@H]1CC[C@@H]1[C@@H]2CC[C@]2(C)C=CC[C@@H]12 2.4%
O=C(c1cccc(F)c1)N1CCC[C@@]2(CCN(Cc3nccs3)C2)C1 -13.2%
C[C@H]1[C@H](C)CC[C@]2(C(=O)O)CC[C@]3(C)C(=CCC4[C@@]5(C)CC[C@H](O)C(C)(C)[C@@H]5CC[C@]43C)[C@H]12 (stereo partly specified) -27%
O=C(c1csnn1)N1CCC[C@@]2(CCN(c3ccncc3)C2)C1 -5.02%
O=C(c1cccc(F)c1)N1CCC2(CC1)CN(c1cccc(-c3ccccc3)c1)C2 8.32%
COCc1nc2c([nH]1)c(=O)n(C)c(=O)n2CC(C)C -1.16% and 8.77% and -24.5%
O=C(NCc1ccccn1)c1cnn(-c2nccc(-c3cc4ccccc4o3)n2)c1C1CC1 -1.39%
COc1ccc(C[C@H](N)C(=O)N[C@H]2[C@@H](O)[C@H](n3cnc4c(N(C)C)ncnc43)O[C@@H]2CO)cc1 -9.76%
[O-][n+]1cccc(CO)c1 -13.3%
COc1ccc(CCNC(=O)C(=O)c2c[nH]c3ccccc23)cc1 -15.3%
COC(=O)c1cc(-c2c(-c3ccc4c(c3)OCO4)noc2-c2ccsc2)cc([N+](=O)[O-])c1 -15.2%
Cc1nc(CC(=O)NCC2Cc3cc(F)cc(-c4ccc(F)c(C)c4)c3O2)cs1 (stereo unspecified) 1.17%
COC(=O)C1N2C(=O)[C@@H](NC(=O)COc3ccccc3)[C@H]2SC1(C)C (stereo partly specified) -3.21%
Fc1ccc([C@H]2CCNC[C@H]2COc2ccc3c(c2)OCO3)cc1 -0.245%
O=c1c(O)c(-c2ccccc2)oc2cccc(O)c12 -10.2%
Cc1cc(C(=O)O[C@H]2[C@H](C)NS(=O)(=O)[C@H]3C[C@@H]4C=C[C@]23O4)cc([N+](=O)[O-])c1 -21.3%
C(=C1C=c2ccccc2=C1)c1ccc(N=Nc2ccc(C=C3C=c4ccccc4=C3)cc2)cc1 -10.3%
O=C(c1cc(C(F)(F)F)cc(C(F)(F)F)c1)N1CCC2(CCCN(Cc3nccs3)C2)CC1 -30.5%
COc1ccc(C(=O)N2CCC3(CC2)CN(c2ccccc2)C3)cc1 6.65%
COc1ccc(C2(C(=O)NCC3Cc4cccc(-c5nc(C)cnc5C)c4O3)CCCC2)cc1 (stereo unspecified) -10.7%
CN[C@H]1CCc2cc(OC)c(OC)c(OC)c2-c2ccc(OC)c(=O)cc21 -2.49%
N#Cc1ccc(CN2CCCC3(CCN(C(=O)c4csnn4)CC3)C2)cc1 -2.24%
Cc1ccnc(NS(=O)(=O)c2ccc(N)cc2)n1 -11.6% and 0.242%
O=C(Nc1ccc(Cl)cc1Cl)[C@@H]1CC=C[C@@H]2CCN(Cc3ccccc3)C(=O)[C@@H]21 -16.4%
NC(=O)OCC(COC(N)=O)c1ccccc1 1.35% and -10.3% and -26.4%
Cc1nc2cnc(Nc3ccccc3)nc2n(Cc2cccs2)c1=O -10.8%
COc1ccccc1-c1cc(NCc2cnc(C)cn2)ncn1 -13%
c1cc2c3c(c1)CCC[N+]3(C1CCCCC1)CCC2 -4.12%
COC(=O)N[C@H](C(=O)N[C@@H](Cc1ccccc1)[C@@H](O)CN(Cc1ccc(-c2ccccn2)cc1)NC(=O)[C@@H](NC(=O)OC)C(C)(C)C)C(C)(C)C -6.82%
CC1(C)CC[C@]2(C)CC[C@@]3(C)C(=CCC4[C@@]5(C)CCC(O)C(C)(C)C5CC[C@@]43C)C2C1 (stereo partly specified) -13.2%
O=c1[nH]c(=O)n([C@H]2C[C@@H](O)[C@@H](CO)O2)cc1C=CBr -22.7%
NCCCC(O)(P(=O)(O)O)P(=O)(O)O -11.3% and -14.6%
O=C(Nc1ccccc1)N1CCCC2(CCN(C(=O)c3csnn3)CC2)C1 -8.21%
O=C(c1ccncc1)N1CCC[C@@]2(CCN(c3ccncc3)C2)C1 -12%
Nc1ccc(S(=O)(=O)Nc2cnc3ccccc3n2)cc1 -6.81% and -17.8%
Cc1ccccc1CN1CCc2nnc(C(C)NC(=O)C3CCN(C)CC3)n2CC1 (stereo unspecified) -4.64%
COCC(=O)N1CCC2(CCCN(c3ccccn3)C2)CC1 3.89%
COc1cc(CN2CCC3(CC2)CC3C(=O)Nc2ccc3sc(C)nc3c2)ccc1F (stereo unspecified) -6.82%
OC[C@H]1O[C@@H](n2cnc3c(NCc4ccccc4)ncnc32)[C@H](O)[C@@H]1O 2.58%
Oc1ccc(CCNCCCCCCNCCc2ccccc2)cc1O -0.655%
CC1=CC(=C(c2ccc(N)cc2)c2ccc(N)cc2)C=CC1=N 11%
COc1ccc(SCCN2CC[C@@H](C(C)(C)C)CCC2=O)cc1 -27%
C=CCN(c1ccc(Br)cc1C(=O)OC)S(C)(=O)=O -22.7%
COc1ccc(CN2CCC(=O)N([C@H](CO)Cc3ccccc3)CC2)cc1OC -15.2%
CC(C)c1c(C(=O)NCC(C)(C)N2CCOCC2)cnn1-c1nccc(-c2ccccc2F)n1 -6.27%
CCCCCCCCCC[Si](C)(C)CCC(=O)NC(Cc1ccc(C)cc1)c1ccccc1 (stereo unspecified) -23.7%
Cc1cccc(CNc2ncncc2-c2ccccc2C(F)(F)F)c1 -11.4%
CN(Cc1ccco1)c1ncnc2ccc(-c3ccc4c(c3)OCO4)cc12 -18.6%
CN1CCC(Nc2ncc3ncnc(Nc4ccc(F)c(Cl)c4)c3n2)CC1 -26.5%
O=C1C(c2[nH]c3ccccc3c2O)=Nc2ccccc21 -4.29%
O=c1c(O)c(-c2ccc(O)cc2)oc2ccccc12 -23.6%
Clc1ccccc1-c1ccc2ncnc(N3CCNCC3)c2c1 -10.4%
Cc1noc(C)c1C(=O)N1CCC2(CCCN(Cc3ccc(C#N)cc3)C2)CC1 -0.829%
CCOC(=O)[C@H](CCc1ccccc1)N[C@@H](C)C(=O)N(CC(=O)O)C1Cc2ccccc2C1 -12%
O=C1O[C@@H]2[C@@H](O)[C@H](O)O[C@@H]2[C@H]1O -2.06%
